Reference: PubChem BioAssay AID602332 (National Center for Advancing Translational Sciences (NCATS), 2012)
Several values for one entry are separate records, joined by “and”; a condition that tells them apart may be missing. Equal entries are not always repeated. Out of some 420,000 compounds screened, about 75 (0.02%) were called active. Calls come from the whole dose curve; as a rule, active = well fitted activation curve with a large enough effect; inconclusive = small, poorly fitted or top-dose-only effect; inactive = no such curve, though single readings can be large or run the other way. Only a part is listed here, and it is no random draw. Some compounds were tested as several samples or in several runs, with calls that do not always agree.

assay: qHTS for Inducers of the Endoplasmic Reticulum Stress Response (ERSR) in Human Glioma: qHTS; settings: U87-MG GRP78 promoter luciferase reporter, 16 h; activation: hits give high values; note: nearly all actives have a fitted effect of over 35% in size; for activation: % of control where 0% means no effect
Outline: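 Stably transfected U87-MG glioma cells carrying a GRP78-based luciferase sensor; 16 h compound incubation. Luminescence end-point read 10 min after Bright-Glo addition at room temperature.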
Potency is the fitted concentration of half-maximal effect.

| Compound | activation | Potency |
| --- | --- | --- |
| Cc1ccc(C2CC(c3cccs3)=NN2C(=O)CCl)cc1 (centres undefined) | inactive: -15.7% |  |
| Cc1nonc1C(=O)N/N=C/c1ccc(O)c(O)c1 |  | active: 35.5 µM |
| C#C[C@]1(O)CC[C@H]2[C@H]3CCC4=Cc5oncc5C[C@]4(C)[C@@H]3CC[C@]21C | inactive: -6.35% |  |
| c1ccc(-c2noc(-c3ccco3)n2)nc1 | inactive: -13.6% |  |
| Cc1ccc(F)c([C@H]2[C@H]3C=CC[C@@H](C)[C@@H]3C(=O)N2Cc2ccccc2)c1 | inactive: -1.57% |  |
| COc1ccccc1NC(=O)Nn1cnnc1 | inactive: -18.7% |  |
| CCOc1ccc(NC(=O)CCC(=O)N2CCSc3ccccc32)cc1 | inactive: 0.197% |  |
| COc1ccc(CS(=O)(=O)/C(Cl)=C(/Cl)C(=O)Nc2ccc(OC)nc2)cc1 | inactive: -16.6% |  |
| N#CC1=C(N)C(C#N)(C#N)C(c2cccnc2)C2CN(C(=O)OCc3ccccc3)CC=C12 (centres undefined) | inactive: -18.2% |  |
| COc1ccc(NC2C[C@H]3CCCC(=O)N4CC[C@@H](C2)[C@@H]34)cc1 (some centres undefined) |  | active: 50.1 µM |
| O=C(Nc1nc2c(s1)C(=O)CCC2)c1ccccc1 | inactive: -13.2% |  |
| O=C(O)CCCC[C@@H]1CCSS1 | inactive: -1.59% and inactive: 1.39% |  |
| CCOC(=O)C1CCN(C(=O)COc2ccc(Cl)cc2Cl)CC1 | inactive: -12.6% |  |
| COc1cc(OC)cc(C(=O)Nc2ccc3nc4n(c(=O)c3c2)CCCCC4)c1 | inactive: 0.288% |  |
| CC1CCN(c2ccc(-c3ccc(NC(=O)C(F)(F)F)cc3)nn2)CC1 | inactive: -14.2% |  |
| O=C(O)c1cc([N+](=O)[O-])ccc1NCCCc1ccccc1 | inactive: -2.68% and inactive: 12.2% and inactive: 2.57% |  |
| O=C(O)CCn1cc(/C=C\C(=O)c2ccc(Cl)cc2)c(-c2cccc(Br)c2)n1 | inactive: 5.47% |  |
| O=C(N/N=C/c1ccc2ncccc2c1)c1ccco1 | inactive: -14.2% |  |
| O=C(C[C@H]1C/C=C\C[C@@H](NC(=O)OCC2c3ccccc3-c3ccccc32)C(=O)O[C@@H](c2ccccc2)CNC1=O)N[C@H](CO)Cc1ccccc1 | inactive: -2.27% |  |
| Oc1ccc([C@@H]2CNCCc3c2cc(O)c(O)c3Cl)cc1 | inactive: 2.11% |  |

| Compound | activation | Potency |
| --- | --- | --- |
| O=C(Cn1ncc(Cl)c(Cl)c1=O)N1CCN(Cc2ccccc2)CC1 | inactive: -14.7% |  |
| Cc1cc(C(=O)Nc2cccc(C(=O)O)c2)oc1C | inactive: -16.2% |  |
| Cn1c(SCC(=O)Nc2ccc(F)cc2)nc2c([nH]c3ccccc32)c1=O | inactive: -2.45% |  |
| CC(CNC(=O)c1cc(Cl)ccc1[N+](=O)[O-])NC(=O)c1cc(Cl)ccc1[N+](=O)[O-] (centres undefined) | inactive: -18.2% |  |
| CCCC(=O)Nc1cnc(NC(=O)c2cccc(F)c2)cc1C | inactive: -14.1% |  |
| C[C@H]1CN([C@@H](C)CO)S(=O)(=O)c2ccc(Br)cc2O[C@H]1CN(C)C(=O)c1cccc(F)c1 | inactive: -2.06% |  |
| C=CC[C@@H](CC(=O)OC(C)(C)C)C(=O)OC[C@H]1CCCN1C(=O)[C@@H](CC=C)CC(=O)N[C@H](CO)Cc1ccccc1 | inactive: -2.89% |  |
| NS(=O)(=O)C#Cc1ccccc1 | inactive: -11.7% and inactive: -12.8% |  |
| O=C(Oc1ccccc1C(=O)Nc1ccccc1)c1ccc(Br)c([N+](=O)[O-])c1 |  | active: 31.6 µM |
| O=C(NCc1ccccc1)c1nc(S(=O)(=O)Cc2ccccc2)ncc1Cl | inactive: -14.9% |  |
| CCSC1(SCC)N=C(N)C2(C#N)C(c3ccc(OC)c(OC)c3OC)C12C#N (centres undefined) | inactive: -16.6% |  |
| CCC(C)(C)NC(=O)C(c1cccn1C)N(Cc1ccc(OC)cc1)C(=O)Cn1nnc2ccccc21 (centres undefined) | inactive: -17.8% |  |
| COC(=O)COc1ccc2c(-c3ccc(OC)cc3)cc(=O)oc2c1 |  | active: 25.1 µM |
| Cc1ccccc1OCC(O)CNC1CCC(NCC(O)COc2ccccc2C)CC1 (centres undefined) | inactive: -14.5% |  |
| C=C1C(=O)OC2C1CC/C(C)=C/CCC1(C)OC21 (centres undefined) | inactive: -11.5% |  |
| Oc1cc(O)cc(/C=C/c2ccc(O)c(O)c2)c1 | inactive: 3.76% [middle of 5 runs] |  |
| O=C(Nc1nccs1)c1sc2ccccc2c1Cl | inactive: -13.2% |  |
| OCCN1CCN(C2Cc3cc(Cl)ccc3Sc3ccc(Cl)cc32)CC1 (centres undefined) (tested in a mixture with another compound) | inactive: -18.6% |  |
| C=C1C(=O)OC2CC1C(OC(C)=O)CC(C)=CCCC(C)=CCC[C@@]2(C)O (some centres undefined) | inactive: -12.3% |  |
